Reference: the RNAGym collection of RNA variant scans (doi:10.7554/elife.90254)
The source gives no read counts; variants with many changes may rest on few reads.

B1: LINE1-full (parent)
chain: UACGUAGGUGGUUUUCCCCUGAUAGUGCUAAGGGGGCCUGGAAGUUUGGACUGGGCAGAGCUCAACACAGCGUGGCAAAGUGGCUGUGGCUAGACUGCCUCUCUGGAUUCCUCGUCACUCAGCAGGGCAUCUCUGAGAGAAAUGCC

Variants of: B1
Test: self-cleavage, relative activity (ratio to wild type); higher = more cleavage; in vitro, sequencing; the parent is a self-cleaving ribozyme

Variant | self-cleavage
UACGUAGGUGGUUUUCCCCUGAUAGUGCUAAGGGGGCAAGGAAGUUUGGACUGGGCAGAGCUCAACACAGCGUGGCAAAGUGGCUGUGGCUAGACUGCCUCUCUGGAUCCCUCGUCACUCAGCAGGGCAUCCCAGAGAGAAAUGCC [C38A U39A U109C U132C U134A] | 0.46
UACGUAGGAGGUUUUCCCCUGAUAGUGCUAAGGGGGCCUGGAAGUUUGGACUGGGCAGAGCACAACACAGCGUGGCAAAGAGGCUGUGGCUAGACUGCCUCUCUGGAUUCCUCGUCACUCAGCCGGGCAUCUCUGAGAGAAAUGCC [U9A U62A U81A A124C] | 0.04
UACGUAGGUGGUUAUCCCCUGAUAGUGCUAAGGGGGCCUGGAAGUUUGGACUGGGCAGAGCUCAACCCAGCGUGGCAAAGUGGCCGUGGCUAGACUGCCUCUCUGGAUUCCUCGUCACUCAGCAGGGCAUCUCUGAGAGAAAUGCC [U14A A67C U85C] | 0.08
UACGUAGGUGGUUUUCCCCUGAUAGUGCUAAGGGGGCCUGGAAGUUUGGACUGGGCAGAGCUCAACACAGCGUGGCAAAGUGGCUGUGGCUAGACUGCCUCCCUGGACUCCUCGUCACUCAGCAGGGCUUCUCUGAGAGAAAUGCC [U102C U108C A129U] | 0
UACGUAGGUGGUCUUCCCCUGAUAGUGCUAAGGGGGCCUGGAAGUUUGGACUGGGCAGAGCUCAACACAGCAUGGCAAAGUGGCUGUGGCUAAACUGCCUCUCUGGAUCCCUCGUCACUCAGCAGGGCAUCUCUGAGAGAAGUGCC [U13C G72A G93A U109C A142G] | 0.02
UACGUAGGUGGUUUUCCCCUGAUAGUGCUAAGGGGGCCAGGAGGUUUGGACUGGGCAGAGCUCAACACAGCGUGGCAAAGUGGCUGUGGCUAGACUGCCUCUCUGGGUUCCUCGUCACUCAGCAGGGCAUCUCUGAGAGAAAUGCC [U39A A43G A107G] | 0.56
AACGUAGGUGGUUUUCCCCUGAUAGUGCUAAGGGGGCCCGGAAGUUUGGACUGGGCAGAGCUCAACACAGCGUGGCAAAGUGGCUGUGGCAAGACUGCCUCUCUGGAUUCCUCGUCACUCAGCAGGGCAUCUCUGAGAGAAAUGCC [U1A U39C U91A] | 1.13
UACGCAGGUGGUUUUCCCCUGAUAGUGCUAAGGGGGCCUGGAAGUUUGGACUGGGCAGAGCUCAACACAGCGUGGCAAAGUGGCUGUGGCUAGACUGCCUCUCUGGAUUCCUCGUCACUCGGCAGGGCACCUCUGAGAGAAAUGCC [U5C A121G U130C] | 1.12
UGCGUAGGUGGUUUUCCCCUGACAGUGCUAAGGGGGCCUGGAAGUUUGGACUGGGCAGAGCUCAACACAGCGUGGCAAAGUGGCUGUGGCUAGACUGCCUCUCUGGAUACCUCGUCACUCAGCAGGGCAUCUCUGAGAGAAAUGCC [A2G U23C U109A] | 1.11
UACGUAGGUGGUUUUCCCCUGAUAGUGCUGAGGGGGCCUGGAAGUUUGGACAGGGCAGAGCUCAACACAGCGAGGCAAAGUGGCAGUGGCUAGACUGCCUAUCUGGAUUCCUCGUCACUCAGCAGGGCAUCUCUGAGAGAAAUGCC [A30G U52A U73A U85A C101A] | 0.21
UACGUAGGUGGUCUUCCCCUGAUAGUGCUAUGGGGGCCUGGAAGUUUGGACUGGGCAGAGCUCAACACAGCGUGGCAAAAUGGCUGUGGCUAGACUGCCUCUCUGGAUUCCUCGUCACUCAGCAGGGCAUCUCUGAGAGUAAUGCC [U13C A31U G80A A140U] | 0.93
UACGUAGGUGGUCUUCCCCUGAUAGUGCUAAGGGGGCCUGGAAGUUUGGACUGGGCAGAGCUCAACACAGCGUGGCAAAGUGGCUGUGGUUAGACUGCCUCUCUGGAUUCCUCGUCACUCAGCAGGGCAUCUCUGAGUGAAAUGCC [U13C C90U A138U] | 0.03
UACGUAGGUGGUUUUCCCCUGAUAGUGCUAAGGGGGCCUGGAAGUUUGGACUGGGUAGAGCUCAACACAGCGAGGCAAAGUGGCUGUGGCUAGACUGCCUCUCUGGAUUCCUCGUCACUCAGCAGGGCACCUCUGAGAGAAAUGCC [C56U U73A U130C] | 0.15
UACGUAGGUGGUUUUCCCCUGAUAGUGCUAAGGGGGCCUGGAGGUUUGGACUGGGCGGAGCUCAGCACAGCGUGGCAAAGUGGCUGUGGCUAGACUGCCUCUCUGGAUUCCUCGUCACUCAGCAGGGCAUCUCUGAGAGAAAUUCC [A43G A57G A65G G144U] | 0.51
UACGUAGGUGGUUUUCCCCUGAUAGUGCUAAGGGGGCCUGGAAGUUUGGACUGGGCAGAGCUCAACACAGCGUGGCUAAGCGGCUGUGGCUAGACUGCCACUCUGGAUUCCUCGUCACUCAGCAGGGCAUCUCUGAGAGGAAUGCC [A77U U81C U100A A140G] | 1.84
UACGUAGGUGGUUUUCCCCUGAUAGUGCUAAGGGGGCCUGGAAGUUUGGACUGGGCAGAGCUCAACACAGCGUGGCAAAGUGGCUGUGGCUAGACUGCCUCUCUGGAUUCCUCGUCACUCAGCUGGGCAUCUUCGAGAGAAAUGCC [A124U C133U U134C] | 1.79
UACGUAGGUGGUUUUCCCUUGAUAGUGCUAAGGGGGCCUGGAAGUUUGGACUGGGCAGAUCUCAACACAGCGUGGCAAAGUGGCUGCGGCUAGACUGCCUCUCUGGAUUCCUCGUCACUCAGCAGGGCAUCUCUGAGAGAAAUGCC [C19U G60U U87C] | 0.04
UACGUAGGUGGUUUUCCCCAGAUAGUGCUAAGGGGGCCUGGAAGUUUGGACUGGGCAGAGCCCAACACAGCGUGGCAAAGUGGCUGUGGCUAAACUGCCUCUCUGGAUUCCUCGUCACUCAGCAGGGCAUCUCUGAGAGAAAUGCC [U20A U62C G93A] | 0.03
UACCUAGGUGGUUUUCCCCUGAUAGUGCUAAGGGGGCCUGGAAGUUUGGACUGGGUAGAGCCCAACACAGCGUGGCAGAGUGGCUGUGGCUAGGCUGCCUCUCUGGAUUCCUCGUCACUCAGCAGGGCAUCUCUGAGAGAAACGCC [G4C C56U U62C A78G A94G U143C] | 0.63
UACGUAGGUGGUUUUCCCCUGAUAGUGCUAAGGGGGCCUGGAAGUUUGGACUGGGCAGAGCUCAACACAGCGUGGCAAAGUGGCUGUGGCUCGACAGCCUCUCUGGAUUCCUCGUCACUCGGCAGGGCAUCUCUGAGAGAAAUGCC [A92C U96A A121G] | 0
